The list shows a part of the results. Many values rest on one well or one pass, so single values are uncertain.
System: IST-MEL1
Assay: cell count relative to DMSO control; melanoma cells; higher = more viable cells
Details: library dose: low library concentration; 72 h
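Also: cell number obtained by counting DAPI-stained nuclei in high-throughput microscope images with image analysis software, screen run in 1,536-well plates.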

SMILES | cell count
COc1cc(N2CCC(N3CCN(C)CC3)CC2)ccc1Nc1ncc(Cl)c(Nc2ccccc2S(=O)(=O)C(C)C)n1 + O=C(Oc1ccc([N+](=O)[O-])cc1)N1CCC(C(O)(c2ccc3c(c2)OCO3)c2ccc3c(c2)OCO3)CC1 [JZL184] (first compound 0.08 µM, partner dose 1 µM) | 98.4%
Cn1c(Nc2ccc(C(F)(F)F)cc2)nc2cc(Oc3ccnc(-c4ncc(C(F)(F)F)[nH]4)c3)ccc21 + C/C(O)=C(\C#N)C(=O)Nc1cc(Br)ccc1Br [LFM-A13] (first compound 0.08 µM, partner dose 2 µM) | 103%
CO[C@H]1C[C@@H]2CC[C@@H](C)[C@@](O)(O2)C(=O)C(=O)N2CCCC[C@H]2C(=O)O[C@H]([C@H](C)C[C@@H]2CC[C@@H](OCCO)[C@H](OC)C2)CC(=O)[C@H](C)/C=C(\C)[C@@H](O)[C@@H](OC)C(=O)[C@H](C)C[C@H](C)/C=C/C=C/C=C/1C [everolimus] + C[As](C)SC[C@H](NC(=O)CC[C@H](N)C(=O)O)C(=O)NCC(=O)O [Darinaparsin] (first compound 0.02 µM, partner dose 0.4 µM) | 81.9%
C=CCn1c(=O)c2cnc(Nc3ccc(N4CCN(C)CC4)cc3)nc2n1-c1cccc(C(C)(C)O)n1 + O=C(Oc1ccc([N+](=O)[O-])cc1)N1CCC(C(O)(c2ccc3c(c2)OCO3)c2ccc3c(c2)OCO3)CC1 [JZL184] (first compound 0.02 µM, partner dose 1 µM) | 106%
